Assay results published in the antibiotic and cytotoxicity screens of Wong et al. (2023).
Some of the results follow.

test system: S. aureus RN4220; assay: growth inhibition call (relative growth <= 0.2); settings: 50 µM

Growth inhibition call, inactive:
CC(C)(C)[S@@](=O)N1Cc2cc(C(=O)NCc3ccc4c(c3)OCO4)nc(CCN3CCOCC3)c2[C@H]1CCO, O=C(CCCCCC(=O)Nc1ccccc1O)N/N=C/[C@H](O)[C@@H](O)[C@H](O)[C@H](O)CO[C@H]1O[C@H](CO)[C@H](O)[C@H](O)[C@H]1O, COc1ccc2c(c1)OCC(Cc1ccc(O)c(OC)c1)C2=O (stereo not given), Cc1ccc(-c2ccc3c(c2)O[C@H](CN(C)Cc2cncnc2)[C@@H](C)CN([C@@H](C)CO)S3(=O)=O)cc1, Cc1noc(C)c1S(=O)(=O)Nc1ccc2c(c1)C(=O)N([C@H](C)CO)C[C@H](C)[C@H](CN(C)S(=O)(=O)c1cn(C)cn1)OCCCC[C@@H](C)O2, CNC(=O)c1ccc(OC(C)=O)cc1, Nc1ccc(S(=O)(=O)Nc2ccccn2)cc1, C[C@H](CO)N1C[C@H](C)[C@@H](CN(C)S(=O)(=O)c2ccc(F)cc2)Oc2ccc(NS(=O)(=O)c3cccs3)cc2C1=O, N[C@H]1CC[C@H]2CN(Cc3ccc(Cl)c([N+](=O)[O-])c3)C[C@H]21, COc1ccc(NC(=O)Nc2ccc3c(c2)C(=O)N([C@@H](C)CO)C[C@@H](C)[C@@H](CN(C)C(=O)Cc2ccccc2)OCCCC[C@@H](C)O3)cc1
